Reference: paper PMC4336329 (PLoS ONE, 2015)
About 2,200 (0.71%) of roughly 310,000 compounds showed an effect of 50% or more. Effects have a minus sign here. This is one part of the list.

The molecules below were run against human ether-à-go-go-related gene (hERG) potassium channel (human, UniProt Q12809) (assay: primary screen, population patch clamp on CHO cells stably expressing hERG).
Sequence of human ether-à-go-go-related gene (hERG) potassium channel (Q12809 whole entry, looked up): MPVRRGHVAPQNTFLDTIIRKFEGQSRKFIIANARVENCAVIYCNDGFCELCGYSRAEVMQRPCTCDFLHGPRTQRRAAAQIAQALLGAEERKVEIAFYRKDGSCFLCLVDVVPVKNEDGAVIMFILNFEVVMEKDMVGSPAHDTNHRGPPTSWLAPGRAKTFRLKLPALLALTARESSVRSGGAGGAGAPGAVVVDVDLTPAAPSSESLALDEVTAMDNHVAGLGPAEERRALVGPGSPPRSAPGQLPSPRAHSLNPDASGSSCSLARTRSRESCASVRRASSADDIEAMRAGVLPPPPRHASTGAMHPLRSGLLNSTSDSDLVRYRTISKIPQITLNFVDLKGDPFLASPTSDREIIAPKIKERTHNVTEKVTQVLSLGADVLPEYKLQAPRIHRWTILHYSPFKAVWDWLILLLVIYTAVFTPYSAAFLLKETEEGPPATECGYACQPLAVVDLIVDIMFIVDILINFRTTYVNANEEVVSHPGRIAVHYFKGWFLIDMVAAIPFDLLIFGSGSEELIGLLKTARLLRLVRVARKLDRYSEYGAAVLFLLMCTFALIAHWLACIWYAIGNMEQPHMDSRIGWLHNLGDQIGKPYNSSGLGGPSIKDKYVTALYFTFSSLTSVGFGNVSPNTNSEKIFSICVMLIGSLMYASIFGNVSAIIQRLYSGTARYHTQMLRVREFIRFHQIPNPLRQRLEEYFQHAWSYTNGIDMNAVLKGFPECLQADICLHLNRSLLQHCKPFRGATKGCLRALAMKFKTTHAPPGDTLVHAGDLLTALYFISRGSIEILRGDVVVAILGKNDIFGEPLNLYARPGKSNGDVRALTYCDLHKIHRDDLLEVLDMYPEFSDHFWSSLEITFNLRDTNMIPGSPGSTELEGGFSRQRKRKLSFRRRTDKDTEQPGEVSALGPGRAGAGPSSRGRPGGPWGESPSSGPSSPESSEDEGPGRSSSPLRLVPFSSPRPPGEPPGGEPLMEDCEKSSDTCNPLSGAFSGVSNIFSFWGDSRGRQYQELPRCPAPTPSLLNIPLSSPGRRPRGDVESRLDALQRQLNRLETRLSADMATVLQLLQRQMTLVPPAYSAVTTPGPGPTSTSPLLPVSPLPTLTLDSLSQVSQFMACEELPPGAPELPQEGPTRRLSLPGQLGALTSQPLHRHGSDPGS

Row | SMILES | hERG current change (%, negative = inhibition) at 1uM
1 | CC(C)(C)c1ccc(C(=O)c2c[nH]c(C(=O)NCc3cccnc3)c2)cc1 | 1.1%
2 | O=C(Nc1cccnc1)c1ccc(N2CCOCC2)c([N+](=O)[O-])c1 | 15.3%
3 | CCC(=O)Nc1nc2nc(-c3ccccc3)cc(-c3ccccc3)n2n1 | 8.63%
4 | CN(Cc1ccccc1)S(=O)(=O)c1ccc2[nH]cc(C(=O)NCC3CCCO3)c(=O)c2c1 (stereo not drawn) | -2.57%
5 | COc1ccc(-c2nn(-c3ccccc3C)cc2CNCc2cccnc2)cc1F | 1.2%
6 | COc1ccc(/C=C2/N=C(SCC(=O)Nc3cc(C)on3)N(c3ccccc3)C2=O)cc1 | 12.9%
7 | CCOC(=O)/C(=N\Nc1cc(C(F)(F)F)ccc1Cl)N(CC)CC | -0.714%
8 | Cc1onc(-c2c(F)cccc2Cl)c1C(=O)Nc1nnc(-c2ccccc2)s1 | 5.78%
9 | CCC(C)(C)C1CCC(=NNC(=S)Nc2cccnc2)CC1 (stereo not drawn) | 14%
10 | Cc1ccc(O)c(NC(=S)NC(=O)COc2ccc(Br)cc2)c1 | 14%
11 | O=[N+]([O-])c1cc(S(=O)(=O)N2CCCC2)ccc1O | 6.04%
12 | COC(=O)c1cc(=O)n(-c2ccc(C(F)(F)F)cc2)[nH]1 | 11.5%
13 | Cc1cc(C(=O)OCC(=O)Nc2ccc(F)cc2[N+](=O)[O-])c2ccccc2n1 | -0.753%
14 | COc1ccc(COCC(O)CN2CCN(S(=O)(=O)c3ccc(C(C)C)cc3)CC2)cc1 (stereo not drawn) | 15%
15 | O=C(Nc1cccc(C(F)(F)F)c1)c1ccc2nc(N3C(=O)CCC3=O)sc2c1 | 4.32%
16 | COc1ccccc1OC(=O)Nc1ccc(Cl)cc1 | 7.89%
17 | Cc1c(NC(=O)CN2C(=O)c3ccccc3C2=O)c(=O)n(-c2ccccc2)n1C | 11.9%
18 | N/C(=N\OC(=O)CCCc1ccccc1)c1cccnc1 | -0.136%
19 | Cc1nnc(NCCc2ccccc2)n(N)c1=O | 4.92%
20 | COc1ccc(CCNC(=O)C2CCCN2S(=O)(=O)c2cccc3nsnc23)cc1OC (stereo not drawn) | 12.9%
21 | CC(C)CC(=O)N1CCC(O)(CS(=O)(=O)Cc2ccccc2)CC1 | 1.65%
22 | COc1ccc(/C=N/NC(=O)C(=O)N2CCCCCC2)cc1[N+](=O)[O-] | 7.89%
23 | Fc1ccc(C(c2nnnn2CCc2ccccc2)N2CCCc3ccccc32)cc1 (stereo not drawn) | 15.6%
24 | CC(C)Cc1nnc(NC(=O)CCC(=O)N2CC(C)CC(C)C2)s1 (stereo not drawn) | -15.8%
